Laboratory results reported in PubChem BioAssay AID2451 (National Center for Advancing Translational Sciences (NCATS), 2010).
Values joined by “and” are separate entries in the source; they are usually repeats but may differ in a detail not shown here. Equal entries are not always repeated. Hit rate of the full screen: of about 290,000 compounds, about 2,100 (0.72%) were called active. The inconclusive results got no clear call from the source; some entries with a clear call stand among them for comparison. Calls come from the whole dose curve; as a rule, active = well fitted inhibition curve with a large enough effect; inconclusive = small, poorly fitted or top-dose-only effect, or effect the other way; inactive = flat fitted curve, though single readings scatter. Potencies beside an inconclusive call are fits to weak or partial responses and may not hold up. A structure can be active in one record and inactive in another.

The molecules below were run against Fructose-bisphosphate aldolase (Giardia intestinalis (strain ATCC 50803 / WB clone C6)) (UniProt A8B2U2) (assay: qHTS Assay for Inhibitors of Fructose-1,6-bisphosphate Aldolase from Giardia Lamblia). Details: purified Giardia FBPA; activity, negative = inhibition: at 59.6 µM (top of the series) unless noted.
Summary of the method: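 40 nM FBPA preincubated 10 min at RT with compound (up to 57.5 uM final), then substrate plus GAPDH/TPI/NAD/arsenate coupling and diaphorase/resazurin added. Fluorescence read after 20 min at RT, 525/598 nm.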
% is set by controls: 0 for no effect and ±100 for the full control effect; potency is the fitted concentration of half-maximal effect; tags give direction and shape of the fitted curve.
Note: nearly all actives have a fitted effect of over 55% in size.

Chain of UniProt A8B2U2 (A8B2U2 whole entry, looked up): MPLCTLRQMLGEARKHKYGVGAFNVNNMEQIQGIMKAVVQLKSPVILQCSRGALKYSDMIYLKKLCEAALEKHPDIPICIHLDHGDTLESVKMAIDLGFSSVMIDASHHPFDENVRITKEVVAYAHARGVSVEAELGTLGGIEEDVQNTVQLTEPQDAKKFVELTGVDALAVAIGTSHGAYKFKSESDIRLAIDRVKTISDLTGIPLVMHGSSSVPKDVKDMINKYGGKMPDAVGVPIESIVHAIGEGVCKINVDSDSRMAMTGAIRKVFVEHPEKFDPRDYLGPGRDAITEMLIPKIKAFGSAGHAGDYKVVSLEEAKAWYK

Row | Compound | Potency | activity, negative = inhibition
1 | O=S(=O)(NC(=S)NC1CCCCC1)c1cccs1 | inconclusive: 9.98 µM [inhibitor, partial curve] | 
2 | O=C(O)c1c(C(=O)O)c2ccccc2[nH]c1=O | inconclusive: 12.6 µM [inhibitor, partial curve] | 
3 | C=CCN1C(=O)N/C(=C/c2ccc(N3CCOCC3)o2)C1=O | inconclusive: 15.8 µM [inhibitor, partial curve] | 
4 | N#Cc1ccsc1NC(=O)c1cnccn1 | inconclusive: 4.46 µM [inhibitor, full curve] | 
5 | CN(C)c1ccc(/C=N/Nc2cc(N3CCOCC3)nc(N3CCOCC3)n2)cc1 | inconclusive: 3.97 µM [inhibitor, partial curve] | 
6 | COc1cc(/C=N/O)cc(Br)c1OCC(=O)NCc1ccccc1 | inconclusive: 15.8 µM [activator, partial curve] | 
7 | COc1cc(/C=C/c2ccc3cccc(OC)c3n2)c(O)c([N+](=O)[O-])c1 | inactive | 
8 | CN(CCc1ccccn1)Cc1ccc(Cl)c(Cl)c1 | inconclusive: 15.8 µM [inhibitor, partial curve] | 
9 | CC(=O)c1cc(O)c2ccccc2c1O | inconclusive: 6.29 µM [inhibitor, partial curve] | 
10 | COCCn1c(=O)c(-c2ccc(F)cc2)nc2cnc(Nc3cccc(OC)c3)nc21 | inactive | 
11 | COCCN1C(=O)N(c2cccc(OC)c2)C(=O)C1CC(=O)Nc1cccc(F)c1 (stereo not given) |  | inconclusive: 47.6% [activator]
12 | COc1ccccc1C(=O)NC(=S)N1CCCc2ccccc21 | inconclusive: 8.89 µM [inhibitor, partial curve] | 
13 | C/C(=N/Nc1ccc(C(=O)O)cc1)c1ccc(O)c(O)c1O | active: 7.06 µM | 
14 | Cc1ccc2c(c1)C1CN(C)CCC1N2C(=S)NC(=O)c1ccc(Br)cc1 (stereo not given) | active: 15.8 µM | 
15 | N#Cc1ccccc1OCCCNC1CCCC1 | inconclusive: 19.9 µM [inhibitor, partial curve] | 
16 | COc1cccc(C(=O)N2CCN(Cc3ccccc3Br)CC2)c1 | active: 15.8 µM | 
17 | CCCNC(=O)OC[C@@H]1O[C@H](CCO/N=C2\c3cc(OC)ccc3O[C@H](c3cccc(OC)c3)[C@H]2O)C=C[C@@H]1Oc1ccc(OC)cc1 |  | inactive: 0.89% [at 12.9 µM]
18 | CC(=O)N1CCN(C(=O)CCc2nnc(CCCCc3ccccc3)o2)CC1 | inactive | 
19 | O=S(=O)(c1ccccc1C(F)(F)F)N1CCN(CC(O)COc2ccccc2F)CC1 (stereo not given) | inconclusive: 22.4 µM [inhibitor, partial curve] | 
20 | COc1ccc(N2CCN(CC(O)COC(c3ccc(F)cc3)c3ccc(F)cc3)CC2)cc1 (stereo not given) | active: 15.8 µM | 
21 | O=[N+]([O-])c1ccccc1OCCCNCc1ccccc1 | inconclusive: 22.3 µM [inhibitor, partial curve] | 
22 | Cc1cccc(NC(=O)NC(C)C(c2cccs2)N2CCOCC2)c1 (stereo not given) | inactive | 
23 | Cc1ccccc1CN1CCN(C(=O)c2ccco2)CC1 | active: 25.1 µM | 
24 | CC1CCN(C(=O)COC(=O)c2ccccc2NC(=O)c2ccco2)CC1 | inactive | 

Row | Compound | Potency | activity, negative = inhibition
25 | COC/C=C/C1=CC2=CC(=O)C(C)(OC(=O)c3cnc4ccccc4n3)C(=O)C2=CN1C(CO)CO (stereo not given) | inconclusive: 561 nM [inhibitor, full curve] and inconclusive: 7.06 µM [inhibitor, single point] | 
26 | O=C(Cn1cc2c(n1)CCCC2)N1CCc2ccccc21 | inactive | 
27 | C=CCN(CC=C)CCOc1ccccc1F | inconclusive: 35.4 µM [inhibitor, single point] | 
28 | COc1ccccc1-c1cn[nH]c(=S)n1 | inconclusive: 20 µM [inhibitor, single point] | 
29 | COc1ccc(CCNC(=O)c2c(C)nc3ccccn23)cc1 | inactive | 
30 | Cc1cc(C)c(OCCNCc2ccccc2)c(C)c1 | inconclusive: 15.8 µM [inhibitor, partial curve] | 
31 | Cc1ccnc(SCc2cc(=O)c(OC(=O)c3cc([N+](=O)[O-])ccc3Cl)co2)n1 | inactive | 
32 | Oc1ccc(-c2csc(-c3ccccc3)n2)cc1O | inconclusive: 3.54 µM [inhibitor, full curve] | 
33 | O=c1[nH]c(=S)n(C2CC2)c(O)c1/C=N/Nc1cccc2ccccc12 | inconclusive: 1.99 µM [inhibitor, full curve] | 
34 | CC(C)N1CSC(=S)N(Cc2ccccc2)C1 | inconclusive: 17.7 µM [inhibitor, partial curve] | 
35 | COc1cc(-c2nc3ccccn3c2/N=C/c2cc(OC)c(O)cc2Cl)ccc1O | inconclusive: 17.7 µM [inhibitor, partial curve] | 
36 | Cc1cc(Cl)c(OCCCNC2CCCC2)c(Br)c1 | inconclusive: 22.4 µM [inhibitor, partial curve] | 
37 | N#C/C(=C\c1ccc(O)c(O)c1)C(=O)Nc1ccccc1 | inconclusive: 25.1 µM [inhibitor, partial curve] | 
38 | CC(C)CN(C(=O)c1ccco1)c1nc2ccccc2s1 | inactive | 
39 | COCCN1C=C2C(=O)C(C)(OC(=O)C3CCCC3)C(=O)C(c3ccccc3)=C2C=C1CCCC(=O)OC (stereo not given) | inconclusive: 4.46 µM [inhibitor, full curve] and inconclusive: 5 µM [inhibitor, single point] | 
40 | Brc1ccccc1OCCCCCN1CCOCC1 | inconclusive: 15.8 µM [inhibitor, partial curve] | 
41 | COCc1nnc(NS(=O)(=O)c2ccc(Cl)cc2)s1 | inconclusive: 28.2 µM [inhibitor, partial curve] | 
42 | CCOC(=O)c1cc2cc3ccccc3cc2[nH]1 | inconclusive: 15.8 µM [inhibitor, partial curve] | 
43 | Cc1ccc(NC(=O)COC(=O)c2cccc3c2C(=O)c2ccccc2C3=O)c(C)c1 | inactive | 
44 | CCOC(=O)c1c(C)n(Cc2ccco2)c2c1cc(O)c1ccccc12 | inconclusive: 12.6 µM [inhibitor, partial curve] | 
45 | O=C1c2ccccc2C(=O)C12OC2c1cccc2ccccc12 (stereo not given) | inconclusive: 6.29 µM [inhibitor, partial curve] | 
46 | CCOC(=O)c1c(C)[nH]c(=S)c(C#N)c1-c1ccc(Cl)cc1 | inconclusive: 17.7 µM [activator, single point] | 
47 | Cc1ccc(NC(=O)C2(NC(=O)c3ccccn3)CCCCC2)cc1Br | inconclusive: 17.7 µM [inhibitor, single point] | 
48 | CCCCc1nccn1CCn1ccnc1CCCC | inconclusive: 15.8 µM [inhibitor, partial curve] | 

Row | Compound | Potency | activity, negative = inhibition
49 | O=C1NC(=O)C(c2ccccc2[N+](=O)[O-])=C1Nc1ccc(O)c(Cl)c1 | active: 25.1 µM | 
50 | O=C(Nc1nnc(S(=O)(=O)N2CCCCC2)s1)c1ccc(Cl)cc1 | inconclusive: 11.2 µM [inhibitor, partial curve] | 
51 | O=C1CC(N2CCN(S(=O)(=O)c3ccccc3)CC2)C(=O)N1c1ccccc1 (stereo not given) | inactive | 
52 | COc1ccc(CN2C(=O)c3cccnc3C2Nc2cc(Cl)ccc2OC)cc1 (stereo not given) | inconclusive: 28.2 µM [activator, single point] | 
53 | O=C(/C=C/c1ccco1)Nc1scc(-c2ccccc2)c1C(=O)O | inconclusive: 15.8 µM [inhibitor, single point] | 
54 | Cc1ccnc(NC(=S)NC(=O)/C=C/c2ccco2)c1 | inconclusive: 15.8 µM [inhibitor, single point] | 
55 | CNc1cc2c(Nc3cccc(Br)c3)ncnc2cn1 | inconclusive: 0.316 µM [inhibitor, full curve] | 
56 | O=C(O)c1ccccc1-c1cn2cc(Cl)ccc2n1 | inconclusive: 15.8 µM [inhibitor, single point] | 
57 | Clc1ccc(Sc2cnc3ccccc3n2)cc1 | inactive | 
58 | COc1cccc2cc(C(=O)N3CCCCC3C)c(=O)oc12 (stereo not given) | inactive | 
59 | CC(=O)COC(=O)C1=NN(c2ccccc2)C(=O)CC1 |  | inconclusive: 45.6% [activator]
60 | CC(CC1C(C#N)=C(N)OC2=C1C(=O)CCC2)c1ccccc1 (stereo not given) | inactive | 
61 | Cc1cc(N(C)N)nc(NC(=O)NS(=O)(=O)c2ccccc2Cl)n1 | inconclusive: 22.4 µM [activator, single point] | 
62 | CCCc1ncc(C[n+]2ccccc2C)c(N)n1 | inconclusive: 17.7 µM [inhibitor, partial curve] | 
63 | CC(C)OCCCN1C=C2C(=O)C(C)(OC(=O)CCc3ccccc3)C(=O)C=C2C=C1c1ccc(C#N)cc1 (stereo not given) | inconclusive: 251 nM [inhibitor, full curve] and inconclusive: 1.99 µM [inhibitor, partial curve] | 
64 | CCOC(=O)c1ccc(N2C(=O)CC(Sc3nc(O)c(CC)c(=O)[nH]3)C2=O)cc1 (stereo not given) | inconclusive: 15.8 µM [inhibitor, single point] | 
65 | COc1ccccc1CN1CCN(C(c2ccccc2)c2ccccc2)CC1 | inconclusive: 12.6 µM [inhibitor, partial curve] | 
66 | COc1cccc(CN(C)CC(O)COc2cc(Cl)ccc2Cl)c1 (stereo not given) | inconclusive: 14.1 µM [inhibitor, partial curve] | 
67 | COc1ccc(NC(=O)c2cc3ccccc3cc2O)cc1 | inconclusive: 11.2 µM [inhibitor, partial curve] | 
68 | c1ccc(CCNc2ccccc2)cc1 | inactive | 
69 | CC(C)(C)NC(=S)N/N=C\c1ccc(-c2ccc([N+](=O)[O-])cc2)o1 | inconclusive: 15.8 µM [inhibitor, partial curve] | 
70 | O=C1c2ccccc2C(=O)c2[nH]c(=O)[nH]c21 | inconclusive: 0.251 µM [inhibitor, full curve] | 
